Results taken from paper PMC12222028.
These are yes or no findings as the source states them, for the method shown. For part of these data: In cells and extracts the contact can be indirect. Some entries that bind do so weakly or less than the wild type. For part of these data: Tags and fused reporters may be left off the sequences shown. Blank lines part the entries; values can stand above or below the substance they belong to.

Sequences of proteins named here, by UniProt entry; tags and fusion partners are left off. Residues count along the entry.
UniProt P51793: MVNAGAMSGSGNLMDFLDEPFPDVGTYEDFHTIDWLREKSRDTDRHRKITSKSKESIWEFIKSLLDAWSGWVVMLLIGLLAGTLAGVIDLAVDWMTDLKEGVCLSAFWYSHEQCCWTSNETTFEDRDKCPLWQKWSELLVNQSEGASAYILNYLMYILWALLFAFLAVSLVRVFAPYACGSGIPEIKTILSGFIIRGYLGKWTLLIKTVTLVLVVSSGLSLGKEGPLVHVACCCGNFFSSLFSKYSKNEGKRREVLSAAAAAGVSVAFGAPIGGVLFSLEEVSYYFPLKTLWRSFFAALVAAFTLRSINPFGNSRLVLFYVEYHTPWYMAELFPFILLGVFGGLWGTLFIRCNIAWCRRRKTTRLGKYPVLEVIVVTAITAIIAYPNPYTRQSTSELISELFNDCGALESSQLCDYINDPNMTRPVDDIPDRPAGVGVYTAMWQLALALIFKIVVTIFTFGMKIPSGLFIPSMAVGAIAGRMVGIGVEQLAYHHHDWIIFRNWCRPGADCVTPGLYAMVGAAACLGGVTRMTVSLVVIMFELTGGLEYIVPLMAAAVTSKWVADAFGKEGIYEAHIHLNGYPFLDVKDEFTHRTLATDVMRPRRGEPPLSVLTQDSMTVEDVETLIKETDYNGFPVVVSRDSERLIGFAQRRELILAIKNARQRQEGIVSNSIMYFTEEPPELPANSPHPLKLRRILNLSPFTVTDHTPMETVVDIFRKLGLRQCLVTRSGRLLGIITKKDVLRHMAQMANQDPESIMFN
UniProt O43747: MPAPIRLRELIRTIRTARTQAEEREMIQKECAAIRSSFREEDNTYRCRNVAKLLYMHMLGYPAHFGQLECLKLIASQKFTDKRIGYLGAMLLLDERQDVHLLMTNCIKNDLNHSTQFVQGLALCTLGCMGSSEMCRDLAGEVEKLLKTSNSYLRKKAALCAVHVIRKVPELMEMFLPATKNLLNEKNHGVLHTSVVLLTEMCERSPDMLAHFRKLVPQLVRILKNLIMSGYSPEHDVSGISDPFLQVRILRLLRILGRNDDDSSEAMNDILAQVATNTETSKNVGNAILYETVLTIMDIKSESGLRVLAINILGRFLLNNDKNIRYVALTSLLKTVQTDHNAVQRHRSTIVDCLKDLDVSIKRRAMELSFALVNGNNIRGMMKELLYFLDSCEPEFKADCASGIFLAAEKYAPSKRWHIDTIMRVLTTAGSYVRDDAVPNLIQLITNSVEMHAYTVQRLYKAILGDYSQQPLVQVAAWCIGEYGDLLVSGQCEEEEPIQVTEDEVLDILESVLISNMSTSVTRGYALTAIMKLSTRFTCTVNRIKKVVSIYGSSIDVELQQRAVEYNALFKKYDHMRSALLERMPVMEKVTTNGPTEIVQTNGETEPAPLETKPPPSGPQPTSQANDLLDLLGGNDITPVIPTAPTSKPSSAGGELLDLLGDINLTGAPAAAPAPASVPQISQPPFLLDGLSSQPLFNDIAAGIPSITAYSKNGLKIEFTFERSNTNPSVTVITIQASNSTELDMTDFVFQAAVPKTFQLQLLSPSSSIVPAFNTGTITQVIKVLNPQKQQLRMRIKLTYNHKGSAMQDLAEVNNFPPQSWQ
UniProt P62491: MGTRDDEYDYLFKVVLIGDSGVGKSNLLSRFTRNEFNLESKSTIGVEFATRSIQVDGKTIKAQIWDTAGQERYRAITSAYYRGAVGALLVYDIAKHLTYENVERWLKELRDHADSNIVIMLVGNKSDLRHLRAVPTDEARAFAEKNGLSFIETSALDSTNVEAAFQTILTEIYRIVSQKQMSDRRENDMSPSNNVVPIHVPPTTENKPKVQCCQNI
UniProt Q15811: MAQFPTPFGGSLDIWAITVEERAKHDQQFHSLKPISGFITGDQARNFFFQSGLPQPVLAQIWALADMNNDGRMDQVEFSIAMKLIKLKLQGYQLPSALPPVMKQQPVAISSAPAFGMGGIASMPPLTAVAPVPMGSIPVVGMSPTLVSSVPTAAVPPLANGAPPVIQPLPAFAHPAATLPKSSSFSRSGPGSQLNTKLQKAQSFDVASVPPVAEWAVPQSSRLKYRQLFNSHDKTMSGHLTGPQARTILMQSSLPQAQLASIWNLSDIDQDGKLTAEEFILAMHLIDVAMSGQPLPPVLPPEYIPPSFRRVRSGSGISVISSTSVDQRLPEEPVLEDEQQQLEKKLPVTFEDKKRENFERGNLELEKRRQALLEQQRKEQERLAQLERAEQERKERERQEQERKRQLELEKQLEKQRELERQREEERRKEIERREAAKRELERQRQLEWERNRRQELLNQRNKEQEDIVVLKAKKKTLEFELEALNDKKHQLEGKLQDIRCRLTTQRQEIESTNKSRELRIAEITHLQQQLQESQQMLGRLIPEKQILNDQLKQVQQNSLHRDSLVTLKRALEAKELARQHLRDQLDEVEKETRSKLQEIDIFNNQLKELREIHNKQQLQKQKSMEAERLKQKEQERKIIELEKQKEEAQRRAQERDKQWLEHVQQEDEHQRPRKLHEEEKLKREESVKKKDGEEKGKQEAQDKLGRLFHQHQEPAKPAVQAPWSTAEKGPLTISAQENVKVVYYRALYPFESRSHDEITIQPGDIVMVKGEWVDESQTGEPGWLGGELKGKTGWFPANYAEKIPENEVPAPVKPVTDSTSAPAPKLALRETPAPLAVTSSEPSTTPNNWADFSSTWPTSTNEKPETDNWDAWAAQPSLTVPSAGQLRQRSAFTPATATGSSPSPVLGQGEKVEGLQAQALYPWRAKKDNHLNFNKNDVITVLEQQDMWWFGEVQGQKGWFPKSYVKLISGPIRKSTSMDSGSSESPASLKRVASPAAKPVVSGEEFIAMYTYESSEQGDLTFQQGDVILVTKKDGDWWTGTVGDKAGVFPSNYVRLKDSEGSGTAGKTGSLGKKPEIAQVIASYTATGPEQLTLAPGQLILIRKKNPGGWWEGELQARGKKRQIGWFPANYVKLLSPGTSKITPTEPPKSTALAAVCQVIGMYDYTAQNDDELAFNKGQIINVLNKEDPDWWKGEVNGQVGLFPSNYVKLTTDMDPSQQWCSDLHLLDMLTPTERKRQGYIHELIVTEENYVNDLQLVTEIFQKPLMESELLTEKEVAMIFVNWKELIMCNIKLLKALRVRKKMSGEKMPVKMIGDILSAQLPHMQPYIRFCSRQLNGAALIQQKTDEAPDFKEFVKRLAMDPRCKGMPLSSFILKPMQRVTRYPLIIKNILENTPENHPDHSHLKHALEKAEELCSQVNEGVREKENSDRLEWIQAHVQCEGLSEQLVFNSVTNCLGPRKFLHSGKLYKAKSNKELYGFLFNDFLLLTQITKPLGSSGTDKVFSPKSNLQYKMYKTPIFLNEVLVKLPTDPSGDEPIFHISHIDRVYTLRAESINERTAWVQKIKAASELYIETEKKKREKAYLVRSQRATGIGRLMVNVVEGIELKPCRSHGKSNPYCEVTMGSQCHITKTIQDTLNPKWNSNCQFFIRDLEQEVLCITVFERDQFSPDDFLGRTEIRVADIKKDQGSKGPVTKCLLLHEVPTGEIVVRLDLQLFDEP
UniProt P61006: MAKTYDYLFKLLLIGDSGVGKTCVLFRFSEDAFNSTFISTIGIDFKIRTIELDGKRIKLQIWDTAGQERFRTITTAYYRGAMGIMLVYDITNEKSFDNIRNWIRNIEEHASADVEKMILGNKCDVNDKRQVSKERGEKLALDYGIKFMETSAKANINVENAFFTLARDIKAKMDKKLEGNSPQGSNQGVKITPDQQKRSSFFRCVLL
UniProt Q96T51: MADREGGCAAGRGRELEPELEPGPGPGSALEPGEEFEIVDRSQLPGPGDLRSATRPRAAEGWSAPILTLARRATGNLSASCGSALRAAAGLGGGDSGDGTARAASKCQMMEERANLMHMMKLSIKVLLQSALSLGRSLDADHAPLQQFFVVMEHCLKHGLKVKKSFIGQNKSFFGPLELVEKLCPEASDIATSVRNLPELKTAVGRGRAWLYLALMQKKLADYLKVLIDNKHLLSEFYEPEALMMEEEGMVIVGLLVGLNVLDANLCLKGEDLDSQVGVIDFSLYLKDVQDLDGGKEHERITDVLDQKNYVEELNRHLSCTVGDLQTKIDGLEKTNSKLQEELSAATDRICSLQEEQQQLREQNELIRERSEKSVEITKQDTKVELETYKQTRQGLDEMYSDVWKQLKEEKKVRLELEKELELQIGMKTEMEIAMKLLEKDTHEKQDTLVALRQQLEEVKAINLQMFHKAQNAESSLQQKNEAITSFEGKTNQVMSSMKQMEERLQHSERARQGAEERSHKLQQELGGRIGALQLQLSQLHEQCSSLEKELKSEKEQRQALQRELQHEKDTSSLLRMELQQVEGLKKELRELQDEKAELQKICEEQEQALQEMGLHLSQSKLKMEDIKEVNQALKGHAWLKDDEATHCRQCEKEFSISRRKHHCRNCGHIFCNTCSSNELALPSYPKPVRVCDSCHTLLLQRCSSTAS
UniProt Q9P0T7, residues 21-183: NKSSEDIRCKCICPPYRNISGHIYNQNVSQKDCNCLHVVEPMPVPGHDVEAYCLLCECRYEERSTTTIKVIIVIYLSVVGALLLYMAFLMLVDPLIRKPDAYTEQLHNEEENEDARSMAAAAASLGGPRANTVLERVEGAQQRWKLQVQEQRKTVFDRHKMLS
UniProt Q9NVJ2: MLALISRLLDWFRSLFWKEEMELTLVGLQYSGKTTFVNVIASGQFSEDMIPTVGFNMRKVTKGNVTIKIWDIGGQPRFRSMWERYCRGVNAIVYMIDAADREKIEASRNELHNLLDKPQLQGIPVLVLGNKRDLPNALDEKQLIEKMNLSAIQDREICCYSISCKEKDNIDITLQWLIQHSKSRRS
UniProt P61966: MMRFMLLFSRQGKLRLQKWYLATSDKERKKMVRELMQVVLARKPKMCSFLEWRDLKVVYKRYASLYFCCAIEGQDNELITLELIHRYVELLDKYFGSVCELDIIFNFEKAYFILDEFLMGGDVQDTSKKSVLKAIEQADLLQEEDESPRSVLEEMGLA

Key:
[1] = biological target: T1, SH3BP5 (human (endogenous in HEK293)) (UniProt O60239); test: cross-linking; XL-MS: intact early endosomes (Endo-IP, HEK293 cells expressing Flag-EEA1, eluted with 3xFlag peptide, no detergent) cross-linked with 1 mM DSSO in KPBS at room temperature for 40 min; XlinkX, 5% FDR
T1 sequence: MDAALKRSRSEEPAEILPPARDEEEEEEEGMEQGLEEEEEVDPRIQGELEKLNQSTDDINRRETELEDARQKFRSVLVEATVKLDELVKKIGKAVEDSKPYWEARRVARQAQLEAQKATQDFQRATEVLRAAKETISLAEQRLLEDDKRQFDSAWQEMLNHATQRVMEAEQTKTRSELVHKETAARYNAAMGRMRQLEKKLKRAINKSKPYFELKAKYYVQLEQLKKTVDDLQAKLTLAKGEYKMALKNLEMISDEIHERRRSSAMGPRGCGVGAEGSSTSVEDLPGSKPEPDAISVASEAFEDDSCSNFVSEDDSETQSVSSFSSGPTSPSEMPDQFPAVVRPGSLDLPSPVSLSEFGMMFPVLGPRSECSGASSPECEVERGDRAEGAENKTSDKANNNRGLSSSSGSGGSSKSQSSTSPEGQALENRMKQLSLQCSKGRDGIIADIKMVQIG

[2] = biological target: T2, EPS15L (human (endogenous in HEK293)) (UniProt Q9UBC2); test: as above
T2 sequence: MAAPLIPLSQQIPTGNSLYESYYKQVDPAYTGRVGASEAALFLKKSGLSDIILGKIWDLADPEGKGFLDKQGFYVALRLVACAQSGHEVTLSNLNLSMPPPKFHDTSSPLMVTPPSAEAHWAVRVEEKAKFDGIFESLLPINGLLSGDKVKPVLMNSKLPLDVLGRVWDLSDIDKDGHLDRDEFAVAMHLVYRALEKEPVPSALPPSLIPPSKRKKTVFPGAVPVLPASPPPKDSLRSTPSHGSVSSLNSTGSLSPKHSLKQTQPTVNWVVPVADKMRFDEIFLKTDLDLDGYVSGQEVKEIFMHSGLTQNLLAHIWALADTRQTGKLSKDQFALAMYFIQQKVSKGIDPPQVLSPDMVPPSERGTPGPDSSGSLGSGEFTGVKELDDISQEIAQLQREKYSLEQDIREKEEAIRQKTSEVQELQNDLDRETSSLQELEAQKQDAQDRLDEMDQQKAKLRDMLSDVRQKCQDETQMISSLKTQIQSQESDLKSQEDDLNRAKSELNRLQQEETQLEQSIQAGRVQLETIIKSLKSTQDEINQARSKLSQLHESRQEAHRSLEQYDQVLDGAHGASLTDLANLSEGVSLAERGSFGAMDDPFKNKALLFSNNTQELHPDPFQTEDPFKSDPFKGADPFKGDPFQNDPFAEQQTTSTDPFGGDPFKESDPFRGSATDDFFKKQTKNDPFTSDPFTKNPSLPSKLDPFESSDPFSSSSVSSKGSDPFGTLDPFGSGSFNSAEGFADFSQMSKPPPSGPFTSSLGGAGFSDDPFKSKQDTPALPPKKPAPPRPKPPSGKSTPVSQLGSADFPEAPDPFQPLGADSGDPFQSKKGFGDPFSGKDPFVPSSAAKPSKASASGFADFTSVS

[3] = biological target: T3, SYTL4 (human (endogenous in HEK293)) (UniProt Q96C24); test: as above
T3 sequence: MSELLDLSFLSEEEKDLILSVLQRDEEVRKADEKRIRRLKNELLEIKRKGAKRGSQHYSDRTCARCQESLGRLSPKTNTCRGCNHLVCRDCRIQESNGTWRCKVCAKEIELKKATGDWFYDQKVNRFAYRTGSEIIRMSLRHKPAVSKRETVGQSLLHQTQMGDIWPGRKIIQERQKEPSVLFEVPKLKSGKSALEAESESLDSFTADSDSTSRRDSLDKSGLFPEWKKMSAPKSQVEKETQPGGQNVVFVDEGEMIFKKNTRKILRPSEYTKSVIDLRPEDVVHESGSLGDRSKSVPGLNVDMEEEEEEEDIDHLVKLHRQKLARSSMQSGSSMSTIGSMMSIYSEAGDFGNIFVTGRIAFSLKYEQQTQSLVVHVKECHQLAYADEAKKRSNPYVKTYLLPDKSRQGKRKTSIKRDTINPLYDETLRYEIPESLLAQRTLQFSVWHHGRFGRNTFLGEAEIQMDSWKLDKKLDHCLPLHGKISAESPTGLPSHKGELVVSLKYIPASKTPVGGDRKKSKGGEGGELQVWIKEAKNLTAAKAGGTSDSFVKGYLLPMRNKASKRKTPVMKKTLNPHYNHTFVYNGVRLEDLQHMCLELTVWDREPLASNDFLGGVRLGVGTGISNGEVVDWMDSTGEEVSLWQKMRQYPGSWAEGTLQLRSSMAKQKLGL

[4] = biological target: T4, RUFY2 (human (endogenous in HEK293)) (UniProt Q8WXA3); test: as above
T4 sequence: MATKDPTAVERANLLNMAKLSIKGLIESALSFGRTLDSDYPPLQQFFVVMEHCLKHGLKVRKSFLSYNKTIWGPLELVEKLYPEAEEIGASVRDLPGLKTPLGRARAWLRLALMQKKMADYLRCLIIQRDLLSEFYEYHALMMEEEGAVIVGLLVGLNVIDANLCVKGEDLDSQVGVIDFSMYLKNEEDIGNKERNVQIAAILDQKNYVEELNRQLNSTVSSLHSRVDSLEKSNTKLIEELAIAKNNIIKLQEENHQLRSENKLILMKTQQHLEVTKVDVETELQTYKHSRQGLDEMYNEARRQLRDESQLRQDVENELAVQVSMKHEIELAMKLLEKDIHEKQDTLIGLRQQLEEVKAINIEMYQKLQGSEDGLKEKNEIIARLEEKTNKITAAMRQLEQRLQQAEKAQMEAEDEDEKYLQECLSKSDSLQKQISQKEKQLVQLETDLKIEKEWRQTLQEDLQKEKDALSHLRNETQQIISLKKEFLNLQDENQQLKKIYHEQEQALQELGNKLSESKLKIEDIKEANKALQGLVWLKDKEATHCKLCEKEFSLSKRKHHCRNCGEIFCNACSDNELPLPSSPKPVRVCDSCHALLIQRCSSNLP

[5] = biological target: CLCN4 (human (endogenous in HEK293)) (UniProt P51793); test: native gel or EMSA; BN-MS: 0.5% DDM extract of purified early endosomes (HEK293) on a 4-16% NativePAGE gel, 48 slices, DIA mass spectrometry; co-fractionation profiles
[6] = biological target: T5, CLCN5 (human (endogenous in HEK293)) (UniProt P51795); test: as above
T5 sequence: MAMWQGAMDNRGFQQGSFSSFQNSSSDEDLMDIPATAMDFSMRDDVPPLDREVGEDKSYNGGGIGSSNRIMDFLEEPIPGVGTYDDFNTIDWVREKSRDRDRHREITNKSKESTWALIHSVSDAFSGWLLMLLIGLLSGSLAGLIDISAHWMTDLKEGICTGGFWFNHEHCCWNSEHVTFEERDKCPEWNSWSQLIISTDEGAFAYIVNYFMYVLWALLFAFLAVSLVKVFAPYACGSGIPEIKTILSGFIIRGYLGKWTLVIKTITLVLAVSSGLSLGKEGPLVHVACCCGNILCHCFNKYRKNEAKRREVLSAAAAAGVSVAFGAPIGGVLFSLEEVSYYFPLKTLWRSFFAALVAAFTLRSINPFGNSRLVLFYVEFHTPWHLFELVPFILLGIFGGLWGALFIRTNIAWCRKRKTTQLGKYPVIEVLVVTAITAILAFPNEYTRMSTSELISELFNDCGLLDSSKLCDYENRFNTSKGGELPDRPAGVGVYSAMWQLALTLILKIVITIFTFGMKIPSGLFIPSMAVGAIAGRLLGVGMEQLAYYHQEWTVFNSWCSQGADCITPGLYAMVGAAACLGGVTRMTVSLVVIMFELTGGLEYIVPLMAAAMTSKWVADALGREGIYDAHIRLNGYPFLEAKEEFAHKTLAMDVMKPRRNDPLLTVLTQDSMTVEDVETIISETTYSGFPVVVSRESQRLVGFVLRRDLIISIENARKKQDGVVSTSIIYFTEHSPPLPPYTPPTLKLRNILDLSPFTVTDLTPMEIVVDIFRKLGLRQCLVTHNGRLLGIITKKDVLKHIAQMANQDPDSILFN

[7] = biological target: T6, Flag–CLCN5 (human) (UniProt P51795); test: co-IP; HEK293 cells transfected with tagged proteins; 0.5% DDM, 25 mM HEPES pH 7.4, 150 mM NaCl; anti-HA or anti-Flag magnetic beads; immunoblot
T6 sequence: T5 sequence

[8] = biological target: AP1G1 (human (endogenous in HEK293)) (UniProt O43747); test: cross-linking; XL-MS: intact early endosomes (Endo-IP, HEK293 cells expressing Flag-EEA1, eluted with 3xFlag peptide, no detergent) cross-linked with 1 mM DSSO in KPBS at room temperature for 40 min; XlinkX, 5% FDR

binding [1]: binds
Substance: RAB11A (from UniProt P62491 1-216)

binding [2]: binds
Substance: ITSN1 (from UniProt Q15811 1-1721)

binding [3]: binds
Substance: RAB8A (from UniProt P61006 1-207)

binding [4]: binds
Substance: RUFY1 (from UniProt Q96T51 1-708)

binding [5]: binds | binding [6]: binds
Substance: TMEM9 (from UniProt Q9P0T7 21-183)

binding [7]: binds
Substance: HA-tagged TMEM9 (from UniProt Q9P0T7 21-183)

binding [4]: binds
Substance: ARL8B (from UniProt Q9NVJ2 1-186)

binding [8]: binds
Substance: AP1S1 (from UniProt P61966 1-158)
